Here are results for 21 variants from the RNAGym collection of RNA variant scans (doi:10.7554/elife.90254).

The source gives no read counts; variants with many changes may rest on few reads.

The chains are these.
B1: OR4K15 (parent)
chain: GUUAACGGUCAUAGGCCAUGGAAACUAGGAGCACCAUUUCGCUGCCAGUGAAGAAAUGAACAAAGAAAAUCUGGGCCAGGCAGGCAUCAAAAGAAAUAGUCUUGCGCUCAACCAGAAAGUCUGUAAUCAUUUUAAGGGUA

Variants of B1 are the subject of the data set. Briefly: self-cleavage, relative activity (ratio to wild type); higher = more cleavage; in vitro, sequencing; the parent is a self-cleaving ribozyme.
Consider GUUAACGGUCAUAGGCCAUGGAAACUAGGAGCACCAUUUCGCUGCCAGUGAAGAAAUGAACAAAGAAAACCUGGGCCAGGCAGGCAUCAGAAGAAAUAGUCUUGCGCUCCACCAGAAAGUCUGUAAUCAUUUUAAGGGUA, for which the self-cleavage stood at 0.13. The figure for GUUAACGGUCAUAGGCCAUGGAAACUAGGAGCACCAUUUCGCUGCCAGUGAAGAAAUGAACAAAGAAAACCUGGGCCAGGCGGGCAUCAAAAGAAAUAGUCUUGCGCUCAACCAGGAAGUCUUUAAUCAUUUUAAGGGUA is 0.95; for GUUAACGGUCAUAGGCCAUGGAAACUAGGAGCACCAUUUCGCUGCCAGUGAAGAAAUGAACAAAGAAAACCUGGGCCAGGCAGGCAUCAAAAGAAAUAGUCUUGCGCUCAACCUGAGAGCCUGUAAUCAUUUUAAGGGUA it is 0.01; for GUUAACGGUCAUAGGCCAUGGAAACUAGGAGCACCAUUUCGCUGCCAGUGAAGAAAUGAACAAAGAAAAUCAGGGCCAGGCAGGCAUCAAGGGAAAUAGUCUUGCGCUCAACCAGAAAGUCUGUAAUCAUUUUAAGGGUA it is 0.23. Consider GUUAACGGUCAUAGGCCAUGGAAACUAGGAGCACCAUUUCGCUGCCAGUGAAGAAAUGAACAAAGAAAACCUGGGCCAGGCAGGCAUCAAAGGAAAUAGUCUUGCGCUCAACCGGAAAGUCUGUAAUCAUUUUAAGGGUA, for which the self-cleavage is 0.09. As for GUUAACGGUCAUAGGCCAUGGAAACUAGGAGCACCAUUUCGCUGCCAGUGAAGAAAUGAACAAAGAAAAUCAGGGCCAGGCAGGCAUCGAAAGAAAUAGUCUUGCGCUCAACCGGAAAGUCUGUAAUCAUUUUAAGGGUA, the self-cleavage worked out at 0.04. On to GUUAACGGUCAUAGGCCAUGGAAACUAGGAGCACCAUUUCGCUGCCAGUGAAGAAAUGAACAAAGAAAAUCAGGGCCAGGCAGGCAUCAAGAGAAAUAGUCUUGCGCUCAACCAGAAAGUCUGUAACCAUUUUAAGGGCA, for which the self-cleavage is 0.04. For GUUAACGGUCAUAGGCCAUGGAAACUAGGAGCACCAUUUCGCUGCCAGUGAAGAAAUGAACAAAGAAAACCUGGCCCAGGCAGGGAUCAAAAGAAAUAGUCUUGCGCCCAACCAGAAAGUCUGUAAUCAUUUUAAGGGUA, the self-cleavage was found to be 0.01. The figure for GUUAACGGUCAUAGGCCAUGGAAACUAGGAGCACCAUUUCGCUGCCAGUGAAGAAAUGAACAAAGAAAAUCAGGGCCAGGCAGGCGUCAAAAGAGAUAGUCUUGCGCUCAACCAGAAAGUCUGUAAUCAUUUUAAGGGUA is 0.41; for GUUAACGGUCAUAGGCCAUGGAAACUAGGAGCACCAUUUCGCUGCCAGUGAAGAAAUGAACAAAGAAAACCUGGGCCAGGCAGGCAUCAAAAGAAGUAGUCCUGCGCUCAACCAGAAAGUCUGUAAUCAUUUUAAGGGUA it is 1.18; for GUUAACGGUCAUAGGCCAUGGAAACUAGGAGCACCAUUUCGCUGCCAGUGAAGAAAUGAACAAAGAAAAUUUGAGCCAGGCAGGCAUCAAAAGAAAUAGCCUUGCGCUCAACCAGAAAGUCUGUAAUCAUUUUAAGGGUA it is 0.29. The figure for GUUAACGGUCAUAGGCCAUGGAAACUAGGAGCACCAUUUCGCUGCCAGUGAAGAAAUGAACAAAGAAAACCUGGGCCAGGCAGGCAUCAAAAGAAAUAGUCUUGCGCUCGACCGGAAAGUCUGUAAUCAUUUUAAGGGUA is 0.03; for GUUAACGGUCAUAGGCCAUGGAAACUAGGAGCACCAUUUCGCUGCCAGUGAAGAAAUGAACAAAGAAAAUCAGGGCCAGGCGGACAUCAAAAGAAAUAGCCUUGCGCUCAACCAGAAAGUCUGUAAUCAUUCUAAGGGUA it is 0.01; for GUUAACGGUCAUAGGCCAUGGAAACUAGGAGCACCAUUUCGCUGCCAGUGAAGAAAUGAACAAAGAAAACCUGGGCCGGGCAGGCAUCAAAAGAAGUAGUCUUGCGCUCAACCAGAAAGUCCGUAAUCAUUUUAAGGGUA it is 0.18. For the variant GUUAACGGUCAUAGGCCAUGGAAACUAGGAGCACCAUUUCGCUGCCAGUGAAGAAAUGAACAAAGAAAACCUGGGCCAGGCAGGCAUCAAAAGAAAAAGUCUUGCGCUCAACCAGAAAGUCUGUAAUCGUUUUAAGGGUA, the self-cleavage stood at 0.31. With GUUAACGGUCAUAGGCCAUGGAAACUAGGAGCACCAUUUCGCUGCCAGUGAAGAAAUGAACAAAGAAAAGCUGGGCCAGGCAGGCAUCAAAAGAAAUAGUCUUGCGCUCAGCCAGAAAGACUGUAAUCAUUUUAAGGGUA, the self-cleavage came to 0.02.

Take GUUAACGGUCAUAGGCCAUGGAAACUAGGAGCACCAUUUCGCUGCCAGUGAAGAAAUGAACAAAGAAAACCUGGGACAGGCAGGCAUCAGAAGAAAUAGUCUUGCGCUCAACCAGAAAGUCUGUAAUCAUUUUAAGGGUA: the self-cleavage is 0.16. Under GUUAACGGUCAUAGGCCAUGGAAACUAGGAGCACCAUUUCGCUGCCAGUGAAGAAAUGAACAAAGAAAACCUGGGCCAGGCAGGCAUCAAAAGAAAUAGUCUUGCGCUCAACCAGAAAGUCUGUAAUCAUCUUAAGGGUG stands 0.07; under GUUAACGGUCAUAGGCCAUGGAAACUAGGAGCACCAUUUCGCUGCCAGUGAAGAAAUGAACAAAGAAAACCUGGGCCAGGCAGGCAUCAAAAGAAAUAGUCUUGCGCUCAACCAGAGAGUCUGUAACCAUUUUAAGGGUA, 0.82; under GUUAACGGUCAUAGGCCAUGGAAACUAGGAGCACCAUUUCGCUGCCAGUGAAGAAAUGAACAAAGAAAACCUGGGCCAGGCAGGCUUCAAAAGAAAUGGCCUUGCGCUCAACCAGAAAGUCUGUAAUCAUUUUAAGGGUA, 0.23.

For the variant GUUAACGGUCAUAGGCCAUGGAAACUAGGAGCACCAUUUCGCUGCCAGUGAAGAAAUGAACAAAGAAAACCUGGGCCAGGCAGGCGUCAAAAGAAAUAGUCUUGCGCUCAACCAGAAAGUCUGUAAUCAUUAUAAGGGUA, the self-cleavage worked out at 0.54.
